Publication PMC4336329 (PLoS ONE, 2015)
About 2,200 (0.71%) of roughly 310,000 compounds showed an effect of 50% or more. The effect is printed as a negative number. The list shows a part of the results.

These molecules were tested against human ether-à-go-go-related gene (hERG) potassium channel (human, UniProt Q12809) (assay: primary screen, population patch clamp on CHO cells stably expressing hERG).
human ether-à-go-go-related gene (hERG) potassium channel, sequence (Q12809 whole entry, looked up): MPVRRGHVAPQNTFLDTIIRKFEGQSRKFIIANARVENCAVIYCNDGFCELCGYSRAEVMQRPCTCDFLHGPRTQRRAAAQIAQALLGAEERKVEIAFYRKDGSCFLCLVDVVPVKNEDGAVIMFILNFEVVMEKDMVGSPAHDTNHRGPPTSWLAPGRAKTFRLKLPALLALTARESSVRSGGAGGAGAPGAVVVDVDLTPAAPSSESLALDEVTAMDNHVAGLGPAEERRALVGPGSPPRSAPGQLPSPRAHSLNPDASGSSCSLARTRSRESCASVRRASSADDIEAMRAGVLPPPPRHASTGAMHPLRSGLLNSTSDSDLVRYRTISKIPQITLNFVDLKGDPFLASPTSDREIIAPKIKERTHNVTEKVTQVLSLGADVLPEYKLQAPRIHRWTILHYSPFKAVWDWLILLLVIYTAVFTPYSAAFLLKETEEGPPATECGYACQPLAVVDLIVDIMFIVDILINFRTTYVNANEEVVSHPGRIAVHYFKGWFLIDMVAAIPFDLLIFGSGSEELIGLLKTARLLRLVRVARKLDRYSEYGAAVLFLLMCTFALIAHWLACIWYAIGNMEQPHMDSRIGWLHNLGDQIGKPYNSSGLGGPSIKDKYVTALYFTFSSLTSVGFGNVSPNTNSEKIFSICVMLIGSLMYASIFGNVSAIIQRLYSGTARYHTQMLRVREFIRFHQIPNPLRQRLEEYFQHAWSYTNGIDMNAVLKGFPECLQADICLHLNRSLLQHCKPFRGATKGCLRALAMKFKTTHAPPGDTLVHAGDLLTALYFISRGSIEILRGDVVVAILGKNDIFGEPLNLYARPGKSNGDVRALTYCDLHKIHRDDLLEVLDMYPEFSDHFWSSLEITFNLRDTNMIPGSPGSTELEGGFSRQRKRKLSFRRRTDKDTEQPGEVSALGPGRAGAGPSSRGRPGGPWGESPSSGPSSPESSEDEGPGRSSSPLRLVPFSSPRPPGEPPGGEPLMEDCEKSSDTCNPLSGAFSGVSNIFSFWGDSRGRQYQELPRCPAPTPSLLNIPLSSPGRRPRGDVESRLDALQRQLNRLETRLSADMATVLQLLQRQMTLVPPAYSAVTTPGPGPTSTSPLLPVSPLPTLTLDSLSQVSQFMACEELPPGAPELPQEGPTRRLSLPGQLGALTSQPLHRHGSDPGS
For COc1ccc(C(CNC(=O)COc2ccccc2C)N2CCCC2)cc1 (stereo not shown), the “hERG current change (%, negative = inhibition) at 1uM” value was 0.233%.
In the case of Cc1ccc(-c2[nH]c3ccccc3c2SCCNC(=O)c2ccc(S(=O)(=O)N3CCOCC3)cc2)cc1, the “hERG current change (%, negative = inhibition) at 1uM” value is reported as 15.3%.
Cc1ccc(NC(=O)CN2C(=O)S/C(=C\c3cc(C)n(-c4cccc(C(=O)O)c4)c3C)C2=O)cc1 was tested, and the “hERG current change (%, negative = inhibition) at 1uM” value was 13.3%.
Cc1nn(-c2ccc(F)cc2F)c(=O)c2noc(C)c12 was tested, and the “hERG current change (%, negative = inhibition) at 1uM” value was 13%.
In the case of CCN(C(=O)CCC(=O)N(CC)c1ccccc1)c1ccccc1, the “hERG current change (%, negative = inhibition) at 1uM” value is reported as -3.95%.
In the case of COc1ccccc1NC(=O)C1CCCN1C(=O)NCc1ccccc1 (stereo not shown), the “hERG current change (%, negative = inhibition) at 1uM” value is reported as 10.1%.
In the case of Cc1ccc(S(=O)(=O)N(CC(=O)N2CCCCCC2)c2ccccc2F)cc1, the “hERG current change (%, negative = inhibition) at 1uM” value is reported as 11.9%.
For Cn1cc(CN2CCCC(C(=O)c3ccc(-c4ccccc4)c(F)c3)C2)cn1 (stereo not shown), the “hERG current change (%, negative = inhibition) at 1uM” value was -2.23%.
NS(=O)(=O)c1ccc(CCNC(=O)CSc2nc3ccsc3c(=O)n2CCCCCC(=O)O)cc1 was tested, and the “hERG current change (%, negative = inhibition) at 1uM” value was 10.3%.
In the case of Cc1ccc(OCc2nc3ccccc3[nH]2)cc1, the “hERG current change (%, negative = inhibition) at 1uM” value is reported as 6.51%.
In the case of O=C(Nc1ccc(Cl)cc1C(F)(F)F)c1ccc(Cl)cc1, the “hERG current change (%, negative = inhibition) at 1uM” value is reported as 16.1%.
With CC(C)OC(=O)c1cccc(-c2ccc(C=O)o2)c1 the “hERG current change (%, negative = inhibition) at 1uM” value was 9.15%.
With O=C(Nc1nc2c(c(=O)[nH]1)CCCC2)C1CC1 the “hERG current change (%, negative = inhibition) at 1uM” value was 14%.
O=S(=O)(Nc1ccc(-c2nc3cccnc3s2)cc1)c1cc(F)ccc1F was tested, and the “hERG current change (%, negative = inhibition) at 1uM” value was 10.5%.
In the case of Cc1ccc(C(=O)N2CC(=O)NC(=O)C2)cc1, the “hERG current change (%, negative = inhibition) at 1uM” value is reported as -4.74%.
With Cc1cc(NC(=O)c2ccc3nc(-c4ccccc4)c(-c4ccccc4)nc3c2)no1 the “hERG current change (%, negative = inhibition) at 1uM” value was -4.26%.
COc1ccc(C(=O)NCc2nnc(SCC(=O)N3CCCCCC3)o2)cc1OC was tested, and the “hERG current change (%, negative = inhibition) at 1uM” value was 16.4%.
With CCN1C(=O)CC(N2CCN(CC(=O)NC(C)C)CC2)C1=O (stereo not shown) the “hERG current change (%, negative = inhibition) at 1uM” value was 10.5%.
Cc1ccc2nc(/C(C#N)=C\c3cc(O)ccc3[N+](=O)[O-])[nH]c2c1 was tested, and the “hERG current change (%, negative = inhibition) at 1uM” value was 21.2%.
For Cn1nnc2cc(C(=O)N3CCN(c4ccccn4)CC3)ccc21, the “hERG current change (%, negative = inhibition) at 1uM” value was 13.7%.
With NNC(=S)Nc1cccc(Cl)c1 the “hERG current change (%, negative = inhibition) at 1uM” value was 5.01%.
In the case of O=C(COC(=O)c1cc2ccccc2oc1=O)Nc1cccc(S(=O)(=O)N2CCCCCC2)c1, the “hERG current change (%, negative = inhibition) at 1uM” value is reported as 13.3%.
In the case of O=C(COC(=O)CCN1C(=O)/C(=C\C=C\c2ccccc2)SC1=S)Nc1cc(F)ccc1F, the “hERG current change (%, negative = inhibition) at 1uM” value is reported as 8.36%.
For O=C(CSc1ccc(-c2ccccc2)nn1)NCc1ccco1, the “hERG current change (%, negative = inhibition) at 1uM” value was 2.94%.
With O=C(c1cc(COc2c(F)cccc2F)on1)N1CCC(c2ccncc2)CC1 the “hERG current change (%, negative = inhibition) at 1uM” value was -9.15%.
For COC(=O)Nc1sc2c(c1C(N)=O)CCC(C)C2 (stereo not shown), the “hERG current change (%, negative = inhibition) at 1uM” value was -3.44%.
With CCN(CC(=O)Nc1c(F)cccc1F)C(=O)CCCNC(=O)c1ccc(Cl)cc1 the “hERG current change (%, negative = inhibition) at 1uM” value was 6.47%.
In the case of CN(CC(=O)NCc1ccc2c(c1)OCO2)S(=O)(=O)c1ccc(Br)s1, the “hERG current change (%, negative = inhibition) at 1uM” value is reported as 7.62%.
For COCC1CCN(C(=O)c2cc(COc3ccc4c(c3)CCCC4)on2)C1 (stereo not shown), the “hERG current change (%, negative = inhibition) at 1uM” value was 12.1%.
COc1cc(/C=N/NC(=O)c2ccoc2C)cc(OC)c1O was tested, and the “hERG current change (%, negative = inhibition) at 1uM” value was -1.3%.
N#C/C(=C\c1cn(Cc2ccc(F)cc2)c2ccccc12)C(=O)NCc1ccco1 was tested, and the “hERG current change (%, negative = inhibition) at 1uM” value was 13.6%.
With CCn1c(SCC(=O)NC2CC2)nnc1-c1ccccc1OC the “hERG current change (%, negative = inhibition) at 1uM” value was 20.3%.
For Nc1nnc(CC(=O)NCc2ccccc2)s1, the “hERG current change (%, negative = inhibition) at 1uM” value was 11.8%.
With COc1ccc(-c2[nH]ncc2CN2CCSCC2)c(OC)c1 the “hERG current change (%, negative = inhibition) at 1uM” value was 7.49%.
For Cc1ccc2cccc(SCC(=O)N3CCOCC3)c2n1, the “hERG current change (%, negative = inhibition) at 1uM” value was 11.1%.
COc1ccc(C=C2C(=O)N(C)C(=O)N(C)C2=O)cc1CSc1ccccn1 was tested, and the “hERG current change (%, negative = inhibition) at 1uM” value was -20.1%.
For CCCCN(C(=O)C(C)Oc1ccc(Br)cc1)c1c(N)n(Cc2ccccc2)c(=O)[nH]c1=O (stereo not shown), the “hERG current change (%, negative = inhibition) at 1uM” value was 16.5%.
With Cc1cc(C(=S)N2CCOCC2)c(C)n1-c1ccc(Cl)cc1 the “hERG current change (%, negative = inhibition) at 1uM” value was 0.245%.
For CN(C)S(=O)(=O)n1cc(/C=C(\NC(=O)c2ccccc2Cl)C(=O)N2CCCC2)c2ccccc21, the “hERG current change (%, negative = inhibition) at 1uM” value was 6.78%.
With O=C(Nc1ccc(Cl)cc1)C1CCN(C(=O)c2ccco2)CC1 the “hERG current change (%, negative = inhibition) at 1uM” value was -12%.
For CN1N=C(C(=O)Nc2ccc3c(c2)CCC3)CCC1=O, the “hERG current change (%, negative = inhibition) at 1uM” value was 16.6%.
CC(=O)Nc1ccc(OCCF)cc1 was tested, and the “hERG current change (%, negative = inhibition) at 1uM” value was 11.1%.
Clc1ccc(CSc2nnc3ccccn23)c(Cl)c1 was tested, and the “hERG current change (%, negative = inhibition) at 1uM” value was -10.1%.
For CCOc1cc2c(cc1OCC)C(C(=O)O)C(c1cc(OC)c(OC)c(OC)c1)N(C)C2=O (stereo not shown), the “hERG current change (%, negative = inhibition) at 1uM” value was 5.52%.
For COCCn1c(SCC(=O)Nc2sccc2C(N)=O)nc2cc(Cl)ccc2c1=O, the “hERG current change (%, negative = inhibition) at 1uM” value was 9.47%.
For Cc1ccccc1OCc1nnc(SCc2cc(=O)[nH]c3ccccc23)n1-c1ccccc1, the “hERG current change (%, negative = inhibition) at 1uM” value was 1.65%.
For CC(Sc1nc2c(c(=O)n(C)c(=O)n2C)n1Cc1cc2c(cc1Cl)OCO2)C(=O)O (stereo not shown), the “hERG current change (%, negative = inhibition) at 1uM” value was 22.7%.
With COc1ccc(N(Cc2cc3ccccc3[nH]c2=O)S(=O)(=O)c2ccc(OC)cc2)cc1 the “hERG current change (%, negative = inhibition) at 1uM” value was 10.1%.
In the case of O=C(c1cccc2ccccc12)N1CCN=C1SCc1ccc([N+](=O)[O-])cc1, the “hERG current change (%, negative = inhibition) at 1uM” value is reported as 8.57%.
In the case of COc1cc(C(=O)NCc2nnc(SCC(=O)NCCc3ccccc3)o2)cc(OC)c1OC, the “hERG current change (%, negative = inhibition) at 1uM” value is reported as 9.35%.
CC(=O)NC(Cc1ccc(N(CCCl)CCCl)cc1)C(=O)NC(C(=O)O)C(C)C (stereo not shown) was tested, and the “hERG current change (%, negative = inhibition) at 1uM” value was 13.9%.
COC(=O)/C=C/c1c(C)nc(NCc2ccccc2)nc1Cl was tested, and the “hERG current change (%, negative = inhibition) at 1uM” value was 14.6%.
In the case of COCCN(C(=O)COc1ccc(Cl)cc1)c1nnc(-c2cccnc2)s1.Cl, the “hERG current change (%, negative = inhibition) at 1uM” value is reported as 7.2%.
With COc1ccc(CN2CCc3c([nH]c4ccccc34)C2)c(OC)c1C the “hERG current change (%, negative = inhibition) at 1uM” value was -14.2%.
For CC(=O)NC(CC(=O)NCCN1C(=O)S/C(=C\c2ccccc2)C1=O)c1ccccc1 (stereo not shown), the “hERG current change (%, negative = inhibition) at 1uM” value was 7.28%.
